This note sets out measurements from paper PMC12136788.

The other results are listed elsewhere or left out.

B1: chr1:180885099:180885158:+|3pUTR|ENSG00000143324|msi1_unk|FALSE|overlapping (ssRNA)
RNA: GGGAGUUCUACAGUCCGACGAUCAGCUGAAGCUAUGCCUUAUUAUGCAUCCACAUGUAUGGUCCCUGUAGCGUGACCUUUACUAGCUCUGAAUCAGAAGACAGAGCUAUUUCAGAGGCUCUGUGUGCCCUCACUAGAUAGUUUCAACAGAGGAUUGAGCAUCA
B2: chr8:37861146:37861251:-|3pUTR|ENSG00000156675|unk|FALSE|unique (ssRNA)
RNA: GGGAGUUCUACAGUCCGACGAUCCUGUGCAGAGCAAGAAGAUGAUACUUAUUUUUGAAUUUGUAUUUUUAAAACUAGAUUUAUAGACUUUUUUUUUUUUUAACUAGGGCACUUGCUUCCUUCUUAGCUAAAAGCACCAGCUGACAACAGAGGAUUGAGCAUCA
B3: chr2:89268000:89268296:-|CDS|ENSG00000242076|control|control|control (ssRNA)
RNA: GGGAGUUCUACAGUCCGACGAUCUCCCUGUCUGCAUCUGUAGGAGACAGAGUCACCAUCACUUGCCAGGCGAGUCAGGACAUUAGCAACUAUUUAAAUUGGUAUCAGCAGAAACCAGGGAAAGCCCCUAAGCUCCUGAUCUACCAACAGAGGAUUGAGCAUCA
B4: chr7:111727939:111728040:-|3pUTR|ENSG00000128512|unk|FALSE|unique (ssRNA)
RNA: GGGAGUUCUACAGUCCGACGAUCAAGUGGUAAAUAGUGAUAAAGACUCCUUUUGUACCUUUUUAUGUUCACUUUUUUUUAUAUAGUUUAAUCUUAAAACCAAUACGAUAUUGUCAAACGAUACAAUGUGUGACAAUGUUGUAUCAACAGAGGAUUGAGCAUCA
B5: chr15:52547342:52547511:-|3pUTR|ENSG00000128989|msi1|total|mutant (ssRNA)
RNA: GGGAGUUCUACAGUCCGACGAUCAACAUAUUUAAUAUUAUGCCCUUGGAUCUGUUACUGCAUCACCCGCACUUGUGAUGCAACCGAACACUUCGCCUGUACUGAAAGGGCCAAGAGUAAAUGCCUUGUUUUGUUUUUUUGUUUCAACAGAGGAUUGAGCAUCA
B6: chr7:98206920:98207021:+|3pUTR|ENSG00000164715|unk|total|mutant (ssRNA)
RNA: GGGAGUUCUACAGUCCGACGAUCGUUCUGCAUUAAGCCCCAGGUUCUCUUCUGGCUUUGAAAGGGCCCGAGUGCUCCCAGUGCCGCUUCGUCACAUCGUCACGAGCCCCUGUGGUCAUGGGCGACCUCACACCUCCCUCCCUGCAACAGAGGAUUGAGCAUCA

The target in this assay is T1, UNK ZnF1-6 (called full-length) (human, UniProt Q9C0B0 30-357).
T1 sequence: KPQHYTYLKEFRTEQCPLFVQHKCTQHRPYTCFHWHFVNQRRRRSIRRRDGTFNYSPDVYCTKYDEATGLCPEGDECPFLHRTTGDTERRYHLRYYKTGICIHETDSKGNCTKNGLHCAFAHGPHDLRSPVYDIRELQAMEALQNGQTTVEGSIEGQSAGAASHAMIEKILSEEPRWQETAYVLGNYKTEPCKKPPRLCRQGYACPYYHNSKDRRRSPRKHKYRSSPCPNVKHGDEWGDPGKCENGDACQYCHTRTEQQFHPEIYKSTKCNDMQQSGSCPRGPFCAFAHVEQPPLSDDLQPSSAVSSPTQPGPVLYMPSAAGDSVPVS
Kind of assay: nsRBNS (natural sequence RNA bind-n-seq); RBNS binding buffer (assumed for nsRBNS): 25 mM Tris pH 7.5, 150 mM KCl, 3 mM MgCl2, 0.01% Triton X-100, 500 ug/ml BSA, 20 U/ml SUPERase-In, 4 C; UNK is unkempt and MSI1 is Musashi-1; names of the RNAs are library labels; protein concentration not given here; high values mean tight binding.
In turn, B1 had a binding signal of 2.64 enrichment R.

Molecule B2 registered a binding signal of 53.1 enrichment R.

In turn, B3 showed a binding signal of 2.55 enrichment R.

The molecule B4 came in with a binding signal of 21.5 enrichment R.

B5 registered a binding signal of 0.51 enrichment R.

On to B6, for which the binding signal turned out to be 1.32 enrichment R.
